T1: RBFOX1 RRM RbFoxmut (Fox-RRM*) (Homo sapiens, UniProt Q9NWB1 109-208, R118D;E147R;N151S;E152T)
T1 sequence: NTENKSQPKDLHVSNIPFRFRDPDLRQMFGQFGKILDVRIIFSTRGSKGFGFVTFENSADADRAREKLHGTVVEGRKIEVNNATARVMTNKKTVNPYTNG

B1: CUAGGAC (DNA:RNA)
RNA: GGGAGACCGGAAUUCAGAUUGUCCCUAGGACUUAAAUCCCGUCGUAGCCACCA
DNA 1: CAATCTGAATTCCGGTCTCCC
DNA 2: TGGTGGCTACGACGGGATT
B2: GUGCAUG (DNA:RNA)
RNA: B1 RNA with C25G, A27G, G28C, G29A, A30U, C31G
DNA 1: CAATCTGAATTCCGGTCTCCC
DNA 2: TGGTGGCTACGACGGGATT
B3: AUGAAAG (DNA:RNA)
RNA: B1 RNA with C25A, A27G, G28A, G29A, C31G
DNA 1: CAATCTGAATTCCGGTCTCCC
DNA 2: TGGTGGCTACGACGGGATT
B4: CCUCUCG (DNA:RNA)
RNA: B1 RNA with U26C, A27U, G28C, G29U, A30C, C31G
DNA 1: CAATCTGAATTCCGGTCTCCC
DNA 2: TGGTGGCTACGACGGGATT
B5: CCUCGGG (DNA:RNA)
RNA: B1 RNA with U26C, A27U, G28C, A30G, C31G
DNA 1: CAATCTGAATTCCGGTCTCCC
DNA 2: TGGTGGCTACGACGGGATT
B6: GACCCAU (DNA:RNA)
RNA: B1 RNA with C25G, U26A, A27C, G28C, G29C, C31U
DNA 1: CAATCTGAATTCCGGTCTCCC
DNA 2: TGGTGGCTACGACGGGATT
B7: AUCCCAU (DNA:RNA)
RNA: B1 RNA with C25A, A27C, G28C, G29C, C31U
DNA 1: CAATCTGAATTCCGGTCTCCC
DNA 2: TGGTGGCTACGACGGGATT
B8: UGUAUAU (DNA:RNA)
RNA: B1 RNA with C25U, U26G, A27U, G28A, G29U, C31U
DNA 1: CAATCTGAATTCCGGTCTCCC
DNA 2: TGGTGGCTACGACGGGATT
B9: UCUGCCU (DNA:RNA)
RNA: B1 RNA with C25U, U26C, A27U, G29C, A30C, C31U
DNA 1: CAATCTGAATTCCGGTCTCCC
DNA 2: TGGTGGCTACGACGGGATT
B10: GACAGGA (DNA:RNA)
RNA: B1 RNA with C25G, U26A, A27C, G28A, A30G, C31A
DNA 1: CAATCTGAATTCCGGTCTCCC
DNA 2: TGGTGGCTACGACGGGATT
B11: UGUGUCA (DNA:RNA)
RNA: B1 RNA with C25U, U26G, A27U, G29U, A30C, C31A
DNA 1: CAATCTGAATTCCGGTCTCCC
DNA 2: TGGTGGCTACGACGGGATT
B12: GUCCCUA (DNA:RNA)
RNA: B1 RNA with C25G, A27C, G28C, G29C, A30U, C31A
DNA 1: CAATCTGAATTCCGGTCTCCC
DNA 2: TGGTGGCTACGACGGGATT
B13: GGGCCUC (DNA:RNA)
RNA: B1 RNA with C25G, U26G, A27G, G28C, G29C, A30U
DNA 1: CAATCTGAATTCCGGTCTCCC
DNA 2: TGGTGGCTACGACGGGATT
B14: CAAGCCA (DNA:RNA)
RNA: B1 RNA with U26A, G29C, A30C, C31A
DNA 1: CAATCTGAATTCCGGTCTCCC
DNA 2: TGGTGGCTACGACGGGATT
B15: CCUACAC (DNA:RNA)
RNA: B1 RNA with U26C, A27U, G28A, G29C
DNA 1: CAATCTGAATTCCGGTCTCCC
DNA 2: TGGTGGCTACGACGGGATT
B16: UUCAGUA (DNA:RNA)
RNA: B1 RNA with C25U, A27C, G28A, A30U, C31A
DNA 1: CAATCTGAATTCCGGTCTCCC
DNA 2: TGGTGGCTACGACGGGATT
B17: ACAACCU (DNA:RNA)
RNA: B1 RNA with C25A, U26C, G28A, G29C, A30C, C31U
DNA 1: CAATCTGAATTCCGGTCTCCC
DNA 2: TGGTGGCTACGACGGGATT
B18: UCUCACC (DNA:RNA)
RNA: B1 RNA with C25U, U26C, A27U, G28C, G29A, A30C
DNA 1: CAATCTGAATTCCGGTCTCCC
DNA 2: TGGTGGCTACGACGGGATT
B19: GUAUCGC (DNA:RNA)
RNA: B1 RNA with C25G, G28U, G29C, A30G
DNA 1: CAATCTGAATTCCGGTCTCCC
DNA 2: TGGTGGCTACGACGGGATT
B20: AUGUCGA (DNA:RNA)
RNA: B1 RNA with C25A, A27G, G28U, G29C, A30G, C31A
DNA 1: CAATCTGAATTCCGGTCTCCC
DNA 2: TGGTGGCTACGACGGGATT
B21: UAUUACU (DNA:RNA)
RNA: GGGAGACCGGAAUUCAGAUUGUCCUAUUACUUUAAAUCCCGUCGUAGCCACCA
DNA 1: CAATCTGAATTCCGGTCTCCC
DNA 2: TGGTGGCTACGACGGGATT
B22: UUCAUCU (DNA:RNA)
RNA: B21 RNA with A26U, U27C, U28A, A29U
DNA 1: CAATCTGAATTCCGGTCTCCC
DNA 2: TGGTGGCTACGACGGGATT
B23: CGGUGCU (DNA:RNA)
RNA: B21 RNA with U25C, A26G, U27G, A29G
DNA 1: CAATCTGAATTCCGGTCTCCC
DNA 2: TGGTGGCTACGACGGGATT
B24: GAAAGGC (DNA:RNA)
RNA: B1 RNA with C25G, U26A, G28A, A30G
DNA 1: CAATCTGAATTCCGGTCTCCC
DNA 2: TGGTGGCTACGACGGGATT
B25: GCAGGCG (DNA:RNA)
RNA: B1 RNA with C25G, U26C, A30C, C31G
DNA 1: CAATCTGAATTCCGGTCTCCC
DNA 2: TGGTGGCTACGACGGGATT
B26: UGAACCU (DNA:RNA)
RNA: B21 RNA with A26G, U27A, U28A, A29C
DNA 1: CAATCTGAATTCCGGTCTCCC
DNA 2: TGGTGGCTACGACGGGATT
B27: GCGUCUA (DNA:RNA)
RNA: B21 RNA with U25G, A26C, U27G, A29C, C30U, U31A
DNA 1: CAATCTGAATTCCGGTCTCCC
DNA 2: TGGTGGCTACGACGGGATT
B28: AAGAAAC (DNA:RNA)
RNA: B1 RNA with C25A, U26A, A27G, G28A, G29A
DNA 1: CAATCTGAATTCCGGTCTCCC
DNA 2: TGGTGGCTACGACGGGATT
B29: CGUGGCG (DNA:RNA)
RNA: B1 RNA with U26G, A27U, A30C, C31G
DNA 1: CAATCTGAATTCCGGTCTCCC
DNA 2: TGGTGGCTACGACGGGATT
B30: CGUGUAG (DNA:RNA)
RNA: B1 RNA with U26G, A27U, G29U, C31G
DNA 1: CAATCTGAATTCCGGTCTCCC
DNA 2: TGGTGGCTACGACGGGATT
B31: UGGGCAA (DNA:RNA)
RNA: B1 RNA with C25U, U26G, A27G, G29C, C31A
DNA 1: CAATCTGAATTCCGGTCTCCC
DNA 2: TGGTGGCTACGACGGGATT

Numbering of substitutions follows the chain as printed; changes in the protein carry UniProt numbers. The list shows a part of the results.

The target of this assay is T1, RBFOX1 RRM RbFoxmut (Fox-RRM*). The assay can be described thus: EMSA; HiTS-Eq, 1 nM pool, 10 min; buffer printed only for the single-RNA assays: 10 mM Tris pH 7.5, 150 mM NaCl, 3.4 mM EDTA, 0.001% NP-40, 30 C. As to conditions: tags: His6 N-terminal (pET28a); label: 5' 32P. In a few lines:
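A pool of RNA with 7 randomized nucleotides, 5′-radiolabelled and with DNA-annealed flanks, was equilibrated at 1 nM for 10 min in 50 µL with purified RbFox RRM, wild type or mutant, across increasing protein concentrations. Free RNA was separated by 8% native PAGE, excised, reverse-transcribed, barcoded by PCR and sequenced. Relative association constants were obtained from read-count changes of each RNA species versus the control reaction and normalised to the cognate motif.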
B1: the binding signal was 0.0548 KA relative to UGCAUGU.
Then B2, with 1.39 KA relative to UGCAUGU.
As for B3, the binding signal is 0.171 KA relative to UGCAUGU.
To B4 belongs 0.0748 KA relative to UGCAUGU.
As to B5, the binding signal is 0.0968 KA relative to UGCAUGU.
Turning to B6, the binding signal is 0.0589 KA relative to UGCAUGU.
For the molecule B7, the binding signal was 0.0886 KA relative to UGCAUGU.
Consider B8, for which the binding signal was 0.138 KA relative to UGCAUGU.
Then B9, with 0.0943 KA relative to UGCAUGU; and B10, with 0.0728 KA relative to UGCAUGU.
To B11 belongs 0.199 KA relative to UGCAUGU.
Take B12: the binding signal was 0.0703 KA relative to UGCAUGU.
Consider B13, for which the binding signal was 0.122 KA relative to UGCAUGU.
On to B14, for which the binding signal was 0.079 KA relative to UGCAUGU.
In the case of B15, the binding signal was 0.107 KA relative to UGCAUGU.
To B16 belongs 0.118 KA relative to UGCAUGU; to B17, 0.064 KA relative to UGCAUGU.
To B18 belongs 0.0699 KA relative to UGCAUGU; to B19, 0.312 KA relative to UGCAUGU; to B20, 0.138 KA relative to UGCAUGU.
For B21, the binding signal was 0.109 KA relative to UGCAUGU.
Then B22, with 0.0739 KA relative to UGCAUGU; and B23, with 0.0738 KA relative to UGCAUGU.
To B24 belongs 0.0521 KA relative to UGCAUGU; to B25, 0.122 KA relative to UGCAUGU.
As to B26, the binding signal was 0.121 KA relative to UGCAUGU.
Regarding B27, the binding signal is 0.099 KA relative to UGCAUGU.
Consider B28, for which the binding signal is 0.08 KA relative to UGCAUGU.
Then B29, with 0.158 KA relative to UGCAUGU; and B30, with 0.138 KA relative to UGCAUGU.
Then B31, with 0.0613 KA relative to UGCAUGU.

Source of the values: article PMC9911399, “Two distinct binding modes provide the RNA-binding protein RbFox with extraordinary sequence specificity”.
